Out of some 360,000 compounds screened, about 25,000 (6.9%) were called active. The inconclusive results got no clear call from the source; some entries with a clear call stand among them for comparison. Calls come from the whole dose curve; as a rule, active = well fitted inhibition curve with a large enough effect; inconclusive = small, poorly fitted or top-dose-only effect; inactive = flat fitted curve, though single readings scatter. Potencies beside an inconclusive call are fits to weak or partial responses and may not hold up.
What follows are molecules tested against Luciferin 4-monooxygenase (Photinus pyralis) (UniProt P08659) (assay: qHTS profiling assay for firefly luciferase inhibitor/activator using purifed enzyme and Km concentrations of substrates (counterscreen for miR-21 project)). Settings: purified FLuc, luminescence inhibition; series mostly up to 57.5 µM.
Chain of UniProt P08659 (P08659 whole entry, looked up): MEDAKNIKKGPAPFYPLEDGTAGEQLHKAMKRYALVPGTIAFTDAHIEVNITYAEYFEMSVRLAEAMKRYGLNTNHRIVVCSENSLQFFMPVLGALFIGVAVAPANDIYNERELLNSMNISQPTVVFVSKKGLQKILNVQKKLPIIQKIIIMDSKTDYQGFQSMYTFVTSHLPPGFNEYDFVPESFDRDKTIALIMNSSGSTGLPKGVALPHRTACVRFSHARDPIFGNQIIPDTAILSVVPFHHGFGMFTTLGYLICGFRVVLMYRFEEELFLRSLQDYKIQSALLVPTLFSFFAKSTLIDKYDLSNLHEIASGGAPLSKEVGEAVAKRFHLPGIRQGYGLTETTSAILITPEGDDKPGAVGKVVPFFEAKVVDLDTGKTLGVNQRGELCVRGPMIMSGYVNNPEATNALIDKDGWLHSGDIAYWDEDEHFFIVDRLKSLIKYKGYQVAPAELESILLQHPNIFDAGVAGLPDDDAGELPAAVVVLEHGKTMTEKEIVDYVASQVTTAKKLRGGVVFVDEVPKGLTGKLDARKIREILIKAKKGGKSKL
Method in brief: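 Purified P. pyralis luciferase, 10 nM final, with Km-level 10 uM D-luciferin and 10 uM ATP in 50 mM Tris acetate pH 7.5, 10 mM Mg acetate, 0.01% Tween-20, 0.05% BSA; 6-point qHTS titration about 60 µM downward; luminescence read.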
`COc1ccc(Cn2cccc(NC(=O)Nc3ccc(F)cc3)c2=O)cc1` was tested, and the Potency was inconclusive: 19 µM [inhibitor, partial curve].
In the case of `CC(/C=C/c1ccc(O)cc1)=N/O`, the Potency is reported as inconclusive: 37.9 µM [inhibitor, single point].
For `COc1ccc(-n2nc(C(=O)NCC(=O)N3CC(C)CC(C)C3)c3ccccc3c2=O)cc1OC` (centres undefined), the Potency was inconclusive: 23.9 µM [inhibitor, partial curve, poor fit].
With `O=C1C(=O)N2C(=C1C(=O)N1CCCCCC1)c1ccccc1CC21CCCC1` the Potency was inconclusive: 33.8 µM [inhibitor, partial curve, poor fit].
`Cc1ccc[n+](CC(=O)c2cc3ccccc3oc2=O)c1` was tested, and the Potency was inconclusive: 26.9 µM [inhibitor, partial curve, poor fit].
`Cc1cccc2cc(CN(Cc3cccnc3)C(=O)c3ccncc3)c(=O)[nH]c12` was tested, and the Potency was “inactive”.
In the case of `O=[N+]([O-])c1cc(Br)c2nsnc2c1N1CCOCC1`, the Potency is reported as “inactive”.
In the case of `O=C(NCc1ccco1)c1ccc2c(c1)N(Cc1ccccc1)C(=O)c1ccccc1S2(=O)=O`, the Potency is reported as “inactive”.
With `CCCOC(=O)Nc1ccc(N2CCCCC2)cc1` the Potency was active: 3.01 µM.
For `Cc1sc(NC(=O)C2CCCCC2C(=O)O)c(C(N)=O)c1-c1ccc(C(C)(C)C)cc1` (centres undefined), the Potency was inconclusive: 30.1 µM [inhibitor, partial curve, poor fit].
For `COc1ccc(C(=O)NCCSc2ccccc2C)cc1`, the Potency was active: 3.79 µM.
`Cc1cc(=O)[nH]c2nnc(SCC(=O)Nc3ccc(OC(F)(F)F)cc3)n12` was tested, and the Potency was inconclusive: 23.9 µM [inhibitor, partial curve, poor fit].
`N/C(=N\OC(=O)c1ccccc1[N+](=O)[O-])c1cccnc1` was tested, and the Potency was inconclusive: 26.9 µM [inhibitor, single point].
`CCC(=O)Nc1cc(-c2cccc(C)c2)nn1-c1ccccc1` was tested, and the Potency was inconclusive: 26.9 µM [inhibitor, partial curve].
In the case of `Cc1cc(N/N=C/c2ccccc2[N+](=O)[O-])nc(-n2nc(C)cc2C)n1`, the Potency is reported as inconclusive: 37.9 µM [inhibitor, partial curve, poor fit].
For `C/C(=N/N=C(\C)c1ccccc1O)c1ccccc1O`, the Potency was inconclusive: 0.757 µM [inhibitor, full curve, poor fit].
For `CCOc1ccc(-n2c(SCC(=O)N3CCc4ccccc43)nc3c([nH]c4ccccc43)c2=O)cc1`, the Potency was “inactive”.
With `O=C(Nc1ccc2c(c1)OCO2)c1ccc(N2CCCC2)c([N+](=O)[O-])c1` the Potency was active: 19 µM.
In the case of `Cc1cccc(-c2nnc(SCc3cc(=O)c4cccc(Cl)c4[nH]3)n2C)c1`, the Potency is reported as “inactive”.
`CCOC(=O)c1nc2sc3c(c2c(=O)[nH]1)CCC(C)C3` (centres undefined) was tested, and the Potency was active: 16.9 µM.
In the case of `COc1ccc(CCNC(=O)c2c([S-])n(-c3ccc(C)cc3)c3cccc[n+]23)cc1`, the Potency is reported as inconclusive: 26.9 µM [inhibitor, partial curve, poor fit].
With `COc1cc2c(cc1NC(=O)c1ccc3c(c1)OCO3)oc1ccccc12` the Potency was active: 6.75 µM.
In the case of `CCOC(=O)CNC(=O)CSc1nnc(NC(=O)c2ccccc2Cl)s1`, the Potency is reported as active: 10.7 µM.
For `Cc1ccccc1N=Nc1c(C)[nH]n(-c2ccccc2)c1=O`, the Potency was inconclusive: 9.53 µM [inhibitor, partial curve].
For `Cc1cccc(NC(=O)Nc2ccccc2)n1`, the Potency was active: 12 µM.
For `COc1cc(/C=C2\Oc3cc(O)ccc3C2=O)ccc1O`, the Potency was active: 8.49 µM.
In the case of `COc1ccc(N2C(=O)[C@@H]3[C@H](C2=O)[C@H](C(=O)c2ccc(OC(C)=O)cc2)N2N=CC=C[C@@H]32)cc1`, the Potency is reported as “inactive”.
In the case of `C/C(=N\NC(=O)c1cccc(Cl)c1)c1cccc(NC(=O)C(C)C)c1`, the Potency is reported as inconclusive: 19 µM [inhibitor, partial curve, poor fit].
For `Cc1ccc2nc(N3CCC(C(=O)N4CCN(c5cccc(C)c5C)CC4)CC3)[nH]c2c1`, the Potency was “inactive”.
In the case of `O=C1/C(=C/c2cccc(Cl)c2)SC(=S)N1CCC(=O)N1CCCCC1CCO` (centres undefined), the Potency is reported as inconclusive: 23.9 µM [inhibitor, partial curve].
For `COc1ccccc1CCNC(=O)c1ccc(NC(=O)CC2SC(N3CCCC3)=NC2=O)cc1` (centres undefined), the Potency was “inactive”.
For `CC(C)(C)OC(=O)NCCc1nnc(SCC(=O)Nc2cccc(Cl)c2)o1`, the Potency was inconclusive: 23.9 µM [inhibitor, partial curve, poor fit].
With `Cc1ccc(-c2csc3ncnc(SCc4ccc(C(=O)O)cc4)c23)cc1` the Potency was “inactive”.
For `O=C(N/N=C/c1cn(-c2ccccc2)nc1-c1ccc(F)cc1)c1ccc(Br)o1`, the Potency was inconclusive: 26.9 µM [inhibitor, partial curve, poor fit].
In the case of `FC(F)(F)c1cccc(-c2nc3nc(Cl)c(Cl)nc3[nH]2)c1`, the Potency is reported as active: 4.26 µM.
With `O=C(O)c1cc2cc(Oc3ccccc3)ccc2[nH]1` the Potency was inconclusive: 23.9 µM [inhibitor, partial curve, poor fit].
In the case of `Cc1sc2nc(-c3cccs3)oc(=O)c2c1C`, the Potency is reported as active: 10.7 µM.
For `CCCN(C(=O)CSc1n[nH]c(-c2ccc(OC)cc2)n1)c1c(N)n(Cc2ccccc2)c(=O)[nH]c1=O`, the Potency was active: 10.7 µM.
`CCOc1ccc(C(=O)NCc2nc3cccnc3n2Cc2ccc(F)cc2)cc1OCC` was tested, and the Potency was “inactive”.
`CCN(CC(=O)NCc1cccs1)C(=O)c1ccc(NS(=O)(=O)c2ccc(F)cc2)cc1` was tested, and the Potency was “inactive”.
With `Cn1c(CNC(=O)c2ccc(F)cc2)nc2ccccc21` the Potency was “inactive”.
`CC(C)C(=O)NCC(c1ccc2c(c1)OCO2)N1CCN(c2ccccc2F)CC1` (centres undefined) was tested, and the Potency was “inactive”.
`Cc1ccc(CNC(=O)COC(=O)CCOc2ccc(C)cc2)cc1` was tested, and the Potency was inconclusive: 37.9 µM [inhibitor, partial curve, poor fit].
In the case of `CCCOc1ccc(-c2nnn(CC(=O)OCC)n2)cc1`, the Potency is reported as inconclusive: 26.9 µM [inhibitor, single point].
`COc1ccc(-n2c3c(cc(-c4nc(-c5ccc(C)cc5)cs4)c2=O)C(=O)CC(C)(C)C3)cc1` was tested, and the Potency was “inactive”.
With `COc1ccc(NC(=O)Nc2nc3ccccc3s2)cc1` the Potency was active: 2.39 µM.
With `COc1ccc(-n2nc([N+](=O)[O-])c(=NCc3cccnc3)n2O)cc1` the Potency was inconclusive: 3.79 µM [inhibitor, full curve].
For `O=C(c1ccc(CSCc2ccccc2F)o1)N1CCN(c2ccc(N3CCOCC3)nn2)CC1`, the Potency was inconclusive: 21.3 µM [inhibitor, single point].
`NNC(=O)c1ccc(Cn2cccn2)o1` was tested, and the Potency was inconclusive: 21.3 µM [inhibitor, partial curve, poor fit].
`O=C(CNS(=O)(=O)c1cccs1)N1CCc2ccccc2C1` was tested, and the Potency was inconclusive: 19 µM [inhibitor, single point].
`CCc1nnc(NC(=O)c2ccc(NC(=O)C(C)C)cc2)s1` was tested, and the Potency was inconclusive: 26.9 µM [inhibitor, partial curve, poor fit].
With `COc1cccc(NC(=O)NCCN2CCCCC2)c1` the Potency was “inactive”.
With `O=C(CSc1nc(-c2ccccc2Cl)ns1)NCc1ccco1` the Potency was inconclusive: 37.9 µM [inhibitor, partial curve, poor fit].
`O=c1cc(-c2ccccc2)n2c(SCc3ccc(Cl)cc3)nnc2[nH]1` was tested, and the Potency was inconclusive: 6.01 µM [inhibitor, full curve].
For `O=C(NC(=S)Nc1ccc2c(c1)OCCO2)c1ccc(F)cc1Cl`, the Potency was active: 13.5 µM.
With `O=C(NC(=S)Nc1ccc(Cl)cc1Cl)C1CC1` the Potency was active: 21.3 µM.
With `COc1ccc2c(Cl)c(C(=O)NCCCn3ccnc3)sc2c1` the Potency was inconclusive: 16.9 µM [inhibitor, partial curve].
With `O=[N+]([O-])c1ccc(N/N=C/c2cccnc2)cc1` the Potency was inconclusive: 37.9 µM [inhibitor, single point].
With `Cc1cc(NC(=O)CCCC(=O)O)nc(C)n1` the Potency was “inactive”.
In the case of `CCN(CC)S(=O)(=O)c1ccc2c(c1)nc(SCC(=O)NCC1CCCO1)n2CC` (centres undefined), the Potency is reported as “inactive”.
`CCOC(=O)Cc1csc(NC(=O)c2ccc3ccccc3n2)n1` was tested, and the Potency was active: 15.1 µM.
In the case of `CC(=O)Nc1cccc(C(=O)/C=C/c2ccc(C)cc2)c1`, the Potency is reported as active: 4.78 µM.
For `CC(C)COc1ccc(C(=O)Nc2cc3nn(-c4ccccc4)nc3cc2Cl)cc1`, the Potency was “inactive”.
With `Cc1ccccc1OCC(=O)Nc1cccc(S(=O)(=O)NC2=NCCC2)c1` the Potency was active: 2.13 µM.
`O=C(Nc1ccc2c(c1)Cc1ccccc1-2)c1ccncc1` was tested, and the Potency was inconclusive: 2.39 µM [inhibitor, full curve].
`COc1ccc(NC(=O)C2=CC(c3ccc(C)cc3)=NS(=O)(=O)N2C)cc1OC` was tested, and the Potency was inconclusive: 23.9 µM [inhibitor, partial curve, poor fit].
`COc1ccc(CCn2c(=O)c3cccnc3n(CC(=O)Nc3ccc(C)c(F)c3)c2=O)cc1OC` was tested, and the Potency was “inactive”.
In the case of `O=C1Nc2cc(Cl)c(Cl)cc2N(O)N1c1ccccc1Cl`, the Potency is reported as inconclusive: 26.9 µM [inhibitor, single point].
`Cc1cnc(NC(=O)CSc2nnc(C)n2N)s1` was tested, and the Potency was “inactive”.
In the case of `CCN(CC)CCCN=Cc1c(-c2ccccc2)[nH]n(-c2nc3ccccc3s2)c1=O`, the Potency is reported as inconclusive: 26.9 µM [inhibitor, partial curve, poor fit].
With `O=C(Nc1ccccc1Cl)C(Cl)C(=O)c1ccccc1` (centres undefined) the Potency was inconclusive: 26.9 µM [inhibitor, single point].
In the case of `OC(Cc1nc2ccccc2[nH]1)c1ccccc1Cl` (centres undefined), the Potency is reported as active: 23.9 µM.
For `O=C1CC(c2cccs2)c2ccc3ccccc3c2N1` (centres undefined), the Potency was inconclusive: 30.1 µM [inhibitor, partial curve, poor fit].
In the case of `COc1ccc(C(=O)Nc2c(C)csc2C(=O)O)cc1`, the Potency is reported as inconclusive: 37.9 µM [inhibitor, single point].

Source: PubChem BioAssay AID588342 (National Center for Advancing Translational Sciences (NCATS), 2011)
Note: nearly all actives have a fitted effect of over 55% in size.
Potency is the fitted concentration of half-maximal effect; tags give direction and shape of the fitted curve.
